From the supplement of paper PMC4967469

Assays:
Assay in all cases: Viability of human cancer cell lines after 72 h of drug (GDSC screen)
TPCA-1 = compound: NC(=O)Nc1sc(-c2ccc(F)cc2)cc1C(N)=O [TPCA-1]; details: top dose 20 µM
Procedure: (§1)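 Human cancer cell lines in 384-well plates, medium with 10% serum, drug for 72 h over a 256-fold dose range (nine 2-fold or five 4-fold steps up to the top dose). Adherent lines were fixed and stained with the nucleic acid dye Syto60, suspension lines read with resazurin; signal relative to control wells, capped at 0 and 100%. One two-parameter sigmoid per drug and line, fitted in a mixed model over all curves with the slope shared within a line.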

Y-39983 = compound: C[C@@H](N)c1ccc(C(=O)Nc2ccnc3[nH]ccc23)cc1 [Y-39983]; details: top dose 20 µM; top dose inferred
Procedure: as §1

PLX4720 = compound: CCCS(=O)(=O)Nc1ccc(F)c(C(=O)c2c[nH]c3ncc(Cl)cc23)c1F [PLX4720]; details: top dose 10 µM
Procedure: as §1

PHA-793887 = compound: CC(C)CC(=O)Nc1n[nH]c2c1CN(C(=O)C1CCN(C)CC1)C2(C)C [PHA-793887]; details: top dose 10.24 µM
Procedure: as §1

[1] = screen: GDSC drug entry 1371, top dose inferred

Row | Cell Line | AUC (TPCA-1) | IC50 (TPCA-1) [µM] | AUC (Y-39983) | IC50 (Y-39983) [µM] | AUC (PLX4720; screen: GDSC drug entry 1036) | IC50 (PLX4720; screen: GDSC drug entry 1036) [µM] | AUC (PLX4720; [1]) | IC50 (PLX4720; [1]) [µM] | AUC (PHA-793887) | IC50 (PHA-793887) [µM]
1 | CADO-ES1 (Ewing sarcoma, suspension) | 0.472 | 1.05 | 0.835 | 13.5 | 0.965 | > 10 | 0.986 | > 10 | 0.926 | > 10.2
2 | CHP-134 (neuroblastoma, suspension) | 0.657 | 3.86 | 0.648 | 3.59 | 0.895 | > 10 |  |  | 0.672 | 2.22
3 | COR-L303 (small cell lung carcinoma, suspension) | 0.902 | > 20 | 0.987 | > 20 |  |  |  |  | 0.67 | 1.87
4 | COR-L311 (small cell lung carcinoma, suspension) | 0.77 | 8.12 | 0.97 | > 20 |  |  |  |  | 0.486 | 0.584
5 | COR-L321 (lung, suspension) | 0.912 | > 20 | 0.974 | > 20 | 0.98 | > 10 | 0.969 | > 10 | 0.8 | 4.95
6 | D-423MG (glioma, adherent) | 0.828 | 16.2 | 0.776 | 9.81 | 0.894 | > 10 | 0.924 | > 10 | 0.926 | > 10.2
7 | D-566MG (glioma, adherent) | 0.823 | 11.6 | 0.762 | 7.08 | 0.904 | > 10 | 0.899 | > 10 | 0.928 | > 10.2
8 | DOV13 (ovary, adherent) | 0.971 | > 20 | 0.98 | > 20 | 0.886 | > 10 | 0.884 | > 10 | 0.984 | > 10.2
9 | EMC-BAC-1 (lung adenocarcinoma, adherent) | 0.703 | 5.11 | 0.884 | > 20 | 0.947 | > 10 | 0.973 | > 10 | 0.889 | > 10.2
10 | EMC-BAC-2 (lung adenocarcinoma, adherent) | 0.764 | 8.56 | 0.919 | > 20 | 0.894 | > 10 | 0.827 | 7.68 | 0.583 | 1.13
11 | ESO26 (oesophagus, adherent) | 0.629 | 2.76 | 0.764 | 6.87 | 0.986 | > 10 | 0.987 | > 10 | 0.333 | 0.227
12 | ESO51 (oesophagus, semi-adherent) | 0.93 | > 20 | 0.974 | > 20 | 0.956 | > 10 | 0.965 | > 10 | 0.848 | > 10.2
13 | FLO-1 (oesophagus, adherent) | 0.584 | 2.35 | 0.901 | > 20 | 0.931 | > 10 | 0.885 | > 10 | 0.837 | > 10.2
14 | Hey (ovary, adherent) | 0.885 | 19.7 | 0.876 | 17.9 | 0.947 | > 10 | 0.957 | > 10 | 0.56 | 0.925
15 | Hs746T (stomach, adherent) | 0.923 | > 20 | 0.919 | > 20 | 0.976 | > 10 | 0.978 | > 10 | 0.926 | > 10.2
16 | JHOS-2 (ovary, adherent) | 0.668 | 3.98 | 0.973 | > 20 | 0.882 | > 10 | 0.959 | > 10 | 0.967 | > 10.2
17 | JHOS-3 (ovary, adherent) | 0.887 | > 20 | 0.981 | > 20 | 0.98 | > 10 | 0.962 | > 10 | 0.947 | > 10.2
18 | KMS-11 (myeloma, suspension) | 0.806 | 8.47 | 0.955 | > 20 | 0.954 | > 10 | 0.978 | > 10 | 0.892 | 8.95
19 | KYAE-1 (oesophagus, suspension) | 0.821 | 13.2 | 0.968 | > 20 | 0.933 | > 10 | 0.966 | > 10 | 0.827 | 7.16
20 | NCC021 (kidney, adherent) | 0.819 | 13.8 | 0.896 | > 20 | 0.948 | > 10 | 0.966 | > 10 | 0.985 | > 10.2
21 | NCI-H630 (large intestine, adherent) | 0.877 | > 20 | 0.983 | > 20 | 0.987 | > 10 | 0.987 | > 10 | 0.986 | > 10.2
22 | NCI-H2023 (lung adenocarcinoma, adherent) | 0.927 | > 20 | 0.979 | > 20 | 0.938 | > 10 | 0.974 | > 10 | 0.947 | > 10.2
23 | OACM5-1 (oesophagus, semi-adherent) | 0.509 | 1.33 | 0.854 | 19 | 0.958 | > 10 | 0.985 | > 10 | 0.635 | 1.59
24 | OACp4C (oesophagus, adherent) | 0.489 | 1.16 | 0.681 | 4.48 | 0.974 | > 10 | 0.973 | > 10 | 0.851 | > 10.2
25 | OC-314 (ovary, adherent) | 0.771 | 6.63 | 0.946 | > 20 | 0.951 | > 10 | 0.981 | > 10 | 0.702 | 2.15
26 | OV-7 (ovary, adherent) | 0.852 | > 20 | 0.767 | 11.5 | 0.864 | > 10 | 0.771 | 6 | 0.836 | > 10.2
27 | OV-17R (ovary, adherent) | 0.86 | > 20 | 0.945 | > 20 | 0.977 | > 10 | 0.973 | > 10 | 0.981 | > 10.2

Lines with a small IC50 respond at low doses; a limit (>, <) means that the fit lies beyond the doses tested. AUC is the area under the same curve over the 256-fold range up to the top dose, as a fraction: 1 means no effect, lower means more sensitive. For some assays here: The top dose, if marked as inferred, is not printed in the source and was worked back from the curve model. For some assays here: Where an entry number is given, a second screen of the drug exists; the two often differ.
